Data published in PubChem BioAssay AID686979 (National Center for Advancing Translational Sciences (NCATS), 2013).
Among all 420,000 compounds or so, about 50,000 (12%) were called active. Inconclusive results, whose numbers are uncertain, are shown with a selection of clear calls. The call rests on the fitted dose curve; in most records, active means well fitted inhibition curve with a large enough effect; inconclusive means small, poorly fitted or top-dose-only effect; inactive means flat fitted curve, though single readings scatter. No potency is given beside an inconclusive call; the fits are too rough.

Assay: qHTS for Inhibitors of human tyrosyl-DNA phosphodiesterase 1 (TDP1): qHTS in cells in presence of CPT; further: nearly all actives have a fitted effect of over 55% in size
Conditions: chicken DT40 Tdp1-/-;hTDP1 cells + 20 nM CPT, ATP luminescence, 48 h; activity change, negative = growth inhibition: at 46.2 µM (top of the series) unless noted
Procedure, shortened: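 Cell growth measured by CellTiter-Glo luminescence after a minimum 48 h, 37 C compound exposure with 20 nM CPT in Tdp1-knockout DT40 cells stably expressing hTDP1, seeded 400/well; qHTS titration format.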
On the % scale 0 is the no-effect control and ±100 the full control effect; potency means the concentration at half of the fitted maximal effect; tags describe the fitted curve by direction and shape.

| Structure (SMILES) | Potency | activity change, negative = growth inhibition |
| --- | --- | --- |
| COc1ccc(C2(C)NC(=O)N(CC(=O)NC(C)c3ccc(CC(C)C)cc3)C2=O)cc1 (configuration not stated) | inconclusive [inhibitor, single point] | – |
| CC(C)(C)n1ncc2c(=O)n(CC(=O)NCc3ccco3)cnc21 | inconclusive [inhibitor, single point] | – |
| CCOc1cc(N2CCOCC2)c(OCC)cc1NC(=O)CN1C(=O)NC2(CCCCC2)C1=O | inactive | – |
| COC(=O)N1CCCCC1c1cc(C(=O)Nc2ccc3c(c2)OCO3)no1 (configuration not stated) | inactive | – |
| C#CCOCCOCCOCCNc1nc(N2CCN(C(=O)[C@H]([C@@H](C)O)n3cc(CCCCN)nn3)CC2)nc(N2CCN(C(=O)[C@H]([C@@H](C)CC)n3cc(CCCCN)nn3)CC2)n1 | inactive | – |
| Cn1/c(=N/NC(=O)c2cccc(OC(F)F)c2)sc2ccccc21 | inconclusive [inhibitor, single point] | – |
| Clc1ccccc1Cn1nnc2c(N3CCOCC3)nc(C3CC3)nc21 | inconclusive [inhibitor, single point] | – |
| CCN(CC(=O)NCc1cccs1)C(=O)c1ccc(NS(=O)(=O)c2ccc(C(C)=O)cc2)cc1 | inactive | – |
| Cn1c(=O)c2c(-c3ccccc3)n(-c3cc(Cl)c([N+](=O)[O-])cc3O)cc2n(C)c1=O | inconclusive [inhibitor, partial curve, poor fit] | – |
| COc1ccc(-c2cc3nc(C)c(C)c(N4CCN(C(=O)c5ccoc5)CC4)n3n2)cc1 | inconclusive [inhibitor, single point] | – |
| CCNC(=S)Nc1cc2oc3ccccc3c2cc1OC | inconclusive [inhibitor, single point] | – |
| Cc1c(C(=O)OCc2nc3ccsc3c(=O)[nH]2)oc2ccccc12 | inactive | – |
| CC(=O)c1ccc(NC(=O)CCS(=O)(=O)c2ccc3c(c2)n(C)c(=O)c(=O)n3C)cc1 | inactive | – |
| CCCNC(=O)Cn1c(=O)n(C)c2ccccc21 | inactive | – |
| CCOC(=O)C1(CCc2ccccc2)CCN(Cc2ccc(C(=O)OC)cc2)CC1 | inconclusive [inhibitor, single point] | – |
| Cc1ccc2nc(N(Cc3cccnc3)C(=O)Cc3ccccc3)sc2c1 | inactive | – |
| Cc1cccc(-c2nc(CN3CCN(C(=O)C4CCCO4)CC3)cs2)c1 (configuration not stated) | – | inconclusive: -32.4% [inhibitor] |
| Brc1ccc(C2C=Cc3ccccc32)cc1 (configuration not stated) | inconclusive [inhibitor, single point] | – |
| COc1ccc(C(=O)/C=C/c2ccccc2)c(O)c1 | inconclusive [inhibitor, single point] | – |
| CC(C)(C)NC(=O)C(c1ccc(O)cc1)N(C(=O)Cn1nnc(-c2ccc(F)cc2)n1)c1ccccc1F (configuration not stated) | inconclusive [inhibitor, single point] | – |
| O=C(Cc1ccc(Cl)cc1)Nc1cccc(-c2nnc(-c3ccco3)o2)c1 | inconclusive [inhibitor, single point] | – |
| CC(C)[C@@H]1CC[C@@H](C)c2c(-c3ccccc3)n[nH]c21 | inconclusive [inhibitor, single point] | – |
| Cc1ccccc1Cn1c(SCc2ccc(C(=O)NC(C)c3ccccc3)cc2)nc2ccncc21 (configuration not stated) | active: 9.2 µM | – |
| COc1cc(/C=C(/C#N)C(=O)Nc2ccc(C)cc2)ccc1Oc1nc(Cl)ncc1F | active: 23.1 µM | – |

| Structure (SMILES) | Potency | activity change, negative = growth inhibition |
| --- | --- | --- |
| COc1ccc(CCCc2nnc(SCC(=O)N/N=C\c3ccc(O)c(OC)c3)o2)cc1C | active: 14.6 µM | – |
| Cc1ccccc1-c1cc2nc(Nc3ccc(F)cc3)n(C)c(=O)c2s1 | inconclusive [inhibitor, single point] | – |
| O=S(=O)(N=S(N1CCCCC1)N1CCCCC1)c1ccccc1 | active: 9.2 µM | – |
| CC(C)COc1ccc(CN=C(N)N=C(N)N)cc1Cl | active: 6.51 µM | – |
| CC(C)(C)[C@H]1COC(=O)[C@H](NC(=O)OCC2c3ccccc3-c3ccccc32)C/C=C\C[C@@H](CC(=O)N(CCO)Cc2ccccc2)C(=O)N1 | active: 9.2 µM | – |
| CCn1c(NCCc2ccc(OC)c(OC)c2)nc2c1c(=O)n(C)c(=O)n2C | active: 9.2 µM | – |
| Cc1ccsc1C(=O)N/N=C/C=C/c1ccccc1[N+](=O)[O-] | active: 20.6 µM | – |
| Cc1c2c(n3c(nc4ccccc43)c1C#N)N(CCCN(C)C)CC2 | inactive | – |
| COC(=O)c1ccc2c(=O)n(Cc3ccc(C(=O)NCCCN4CCC(C)CC4)cc3)c(=S)[nH]c2c1 | active: 20.6 µM | – |
| COc1ccc(CN2CCn3ncc(C(=O)Nc4cc(C)cc(C)c4)c3C2=O)cc1 | active: 5.8 µM | – |
| COc1ccc(C(=O)CN2CCN(S(=O)(=O)c3ccc(C(C)C)cc3)CC2)cc1 | inconclusive [inhibitor, single point] | – |
| COc1ccc(-c2cc3nc(C)cc(N4CCN(C(=O)c5ccoc5)CC4)n3n2)cc1 | active: 18.4 µM | – |
| O=C(NCCc1cccs1)c1ccc(Cn2c(SCc3ccc(F)cc3)nc3cccnc32)cc1 | inconclusive [inhibitor, single point] | – |
| CC1Cc2ccccc2N1C(=O)CSc1nncs1 (configuration not stated) | inactive | – |
| COCc1cc(C)n(CC(=O)Nc2cc(C)cc(C)c2)c(=O)c1C#N | inactive | – |
| Cc1cccc(COCC(Cc2ccccc2)N2CCN(C(=O)c3ccc(C(F)(F)F)cc3)CCC2=O)c1 (configuration not stated) | active: 23.1 µM | – |
| CCc1ccc(-n2c(=O)c3c4c(sc3n(CC(=O)NCCCOC)c2=O)CCCC4)cc1 | inconclusive [inhibitor, single point] | – |
| O=C(COC(=O)c1ccc(O)cc1O)Nc1ccc2ccccc2c1 | active: 14.6 µM | – |
| COC(=O)c1ccc2c(c1)C(NC(C)=O)CCc1cc(OC)c(OC)c(OC)c1-2 (configuration not stated) | active: 0.0184 µM | – |
| CN(C)c1ccc(/C=N\NC(=O)c2cccc3cc[nH]c23)cc1 | inconclusive [inhibitor, single point] | – |
| CN(C(=S)NC(=O)c1ccc(Cl)cc1)C1CCCCC1 | inconclusive [inhibitor, single point] | – |
| Cc1ccc(NC(=S)Nc2cc(C(=O)O)ccc2N2CC3CC(C2)c2cccc(=O)n2C3)cc1C (configuration not stated) | inconclusive [inhibitor, partial curve, poor fit] | – |
| O=C1NC(=Nc2cccc(O)c2)S/C1=C\c1cccnc1 | inconclusive [inhibitor, single point] | – |
| Cc1cc(C)cc(N(CC(=O)N2CC=C(c3ccccc3)CC2)S(=O)(=O)c2c(C)noc2C)c1 | inconclusive [inhibitor, single point] | – |

| Structure (SMILES) | Potency | activity change, negative = growth inhibition |
| --- | --- | --- |
| CCOc1ccc(OCC)c(NC(=O)C2CCCN(C(=O)c3ccc(Cl)cc3)C2)c1 (configuration not stated) | inconclusive [inhibitor, single point] | – |
| Oc1ccc2ccccc2c1C=Nc1ccc(N2CCOCC2)cc1 | inactive | – |
| Cc1ccc([N+](=O)[O-])cc1NC(=S)NCCc1ccccc1 | inconclusive [inhibitor, single point] | – |
| Cc1ccc(NC(=O)c2ncn(CC(=O)N[C@H](C)c3cccc4ccccc34)n2)cc1C | inconclusive [inhibitor, single point] | – |
| Cc1ccc(C(=O)NCCN2C3=NC[C@H](C)N3C[C@H]2Cc2ccc(O)cc2)cc1Br | active: 20.6 µM | – |
| CCOC(=O)CC1Sc2ccccc2NC1=O (configuration not stated) | inactive | – |
| CCn1c(CN(C)c2ccccc2)nc2ccccc21 | inconclusive [inhibitor, single point] | – |
| Cc1nn(-c2ccccn2)c2c1C(=O)CC(C)(C)C2Br (configuration not stated) | active: 16.4 µM | – |
| CN(CC(=O)Nc1ccc(N2CCOCC2)cc1)C(=O)Cc1ccccc1 | inconclusive [inhibitor, single point] | – |
| Cc1cccc(NC(=O)c2cccc([N+](=O)[O-])c2O)c1C | active: 16.4 µM | – |
| O=C(Cn1cc2c(n1)CCCC2)N1CCCC1 | inactive | – |
| COc1ccc(C)cc1NC(=O)CN(Cc1nnc(-c2ccc(Cl)cc2)o1)C1CCCC1 | inconclusive [inhibitor, single point] | – |
| O=C(CN(c1ccccc1)S(=O)(=O)c1ccccc1)NCCSc1ccccn1 | inactive | – |
| O=C(Nc1ccc2oc(=O)ccc2c1)c1ccco1 | inactive | – |
| CCCCCC(=O)N1C[C@H](O)[C@@H](n2cc(COC(=O)c3ccccc3)nn2)C[C@@H]1c1ccc(C)cc1 | active: 0.82 µM | – |
| c1ccc(C2=Nc3cccc4cccc(c34)N2)cc1 | active: 7.31 µM | – |
| Cc1ccc(CCc2nnc(SCC(=O)Nc3cc(Cl)ccc3Cl)n2-c2ccccc2)o1 | inconclusive [inhibitor, single point] | – |
| Cc1[nH]c(N=Nc2ccccc2)nc1N=Nc1ccccc1 | active: 5.8 µM | – |
| Cc1ccc(CCNC(=O)c2ccc(NC(=O)N3CC(C)Sc4ccccc43)cc2)cc1 (configuration not stated) | inconclusive [inhibitor, single point] | – |
| COc1ccc(N2CCN(C(CNC(=O)OCc3ccccc3)c3ccco3)CC2)cc1 (configuration not stated) | inconclusive [inhibitor, single point] | – |
| CCOCC(=O)N1CCN(c2ccc(F)cc2)CC1 | inactive | – |
| CCCCN(C(C)=O)c1ccc2c(c1)C1CC2CCN1C(=O)OCc1ccccc1 (configuration not stated) | active: 2.06 µM | – |
| CCCCC[C@@H](C)N1C[C@H](COCc2ccccc2)Oc2cc(N3CCC[C@H]3C(N)=O)ccc2S1(=O)=O | active: 2.91 µM | – |
| CC(C)CN(C(=O)CCNC(=O)c1ccc(Cl)cc1)C1CCS(=O)(=O)C1 (configuration not stated) | – | inconclusive: -31.1% [inhibitor] |
